# Source: paper PMC6212790
# The other results are listed elsewhere or left out. At the low end of the ranking, values are background and their order means little.
# Target: T1, GST-Rok-C97-191 (UniProt O34857)
# T1 sequence: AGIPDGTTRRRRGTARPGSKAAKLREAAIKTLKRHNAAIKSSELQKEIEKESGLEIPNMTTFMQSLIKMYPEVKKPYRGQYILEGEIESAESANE
# Experiment: protein binding microarray;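 further: rank score from −0.5 (least bound) to 0.5 (best bound)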
# Conditions: Rok is a gene silencer of Bacillus subtilis; high values mean tight binding; most listed sequences are background and not binding sites; double strand, one strand shown
row,Sequence,binding signal
1,GACTGGCC,-0.129 E-score
2,AACAGTGA,0.0105 E-score
3,ATCAGCTG,0.00405 E-score
4,CAGTTCGA,0.0164 E-score
5,CCTTTGAC,-0.154 E-score
6,GCTCGTCC,-0.393 E-score
7,AGGGAGGC,-0.385 E-score
8,CGGACAAG,-0.129 E-score
9,AATCCAAG,0.186 E-score
10,CCTGAAAG,-0.277 E-score
11,CGGCAAGC,-0.124 E-score
12,ACGCGGTA,-0.00743 E-score
13,ACTAATCG,0.147 E-score
14,CTGTTTCC,-0.0324 E-score
15,TGACCCAA,-0.13 E-score
16,GATATATA,0.358 E-score
17,GGCTTCTA,0.11 E-score
18,GTATTGGA,0.0594 E-score
19,AATACGCT,-0.133 E-score
20,CAAGCAAA,-0.0617 E-score
21,CGATCAGC,-0.21 E-score
22,CGAGTCAA,-0.132 E-score
23,CGGCCTAG,-0.148 E-score
24,GGTCCGCA,-0.0427 E-score
25,CCGGGAGA,-0.199 E-score

row,Sequence,binding signal
1,CGATAAAG,0.058 E-score
2,AGCGCGTA,0.0748 E-score
3,CCGGTAAA,0.161 E-score
4,CCCTGGAC,-0.252 E-score
5,CTATCGTC,0.0749 E-score
6,CGAGTATC,0.0674 E-score
7,GACCAATA,-0.138 E-score
8,CTATACAA,0.3 E-score
9,AATCGCCG,-0.005 E-score
10,ACACGCTG,-0.145 E-score
11,ATTATATA,0.446 E-score
12,TGCTTTAA,-0.0993 E-score
13,GGCCTGAC,-0.247 E-score
14,ACGCAACG,-0.0768 E-score
15,ACGGAATA,0.137 E-score
16,GAGGCACC,-0.182 E-score
17,CTTGCCCC,-0.127 E-score
18,ACTCCTAC,0.158 E-score
19,AACTGCTC,0.0471 E-score
20,TAAGCCGA,-0.00989 E-score
21,ACAATCAG,-0.0199 E-score
22,CAGGGCTA,-0.0484 E-score
23,CGGGTACC,-0.0812 E-score
24,GAAAGCCA,-0.228 E-score
25,CCGCGATC,-0.101 E-score

row,Sequence,binding signal
1,CCGACACC,-0.191 E-score
2,AACTCGCC,-0.127 E-score
3,CCAATACG,-0.068 E-score
4,CGTTATTC,0.0136 E-score
5,ATCTACGA,0.333 E-score
6,CGATGCCG,-0.121 E-score
7,CTAGTCAC,0.162 E-score
8,ATCAAGTC,-0.0524 E-score
9,ACCTTCCG,-0.0992 E-score
10,CCACGTAG,-0.0519 E-score
11,CGCCAACG,-0.3 E-score
12,TCGATGAA,0.00457 E-score
13,CGTTCAGC,-0.293 E-score
14,CTCGACCC,-0.329 E-score
15,TATAGTGA,0.199 E-score
16,AGATCCTC,-0.14 E-score
17,AACGCTGA,0.0575 E-score
18,ACCGTAAC,0.183 E-score
19,TTGTTAAA,0.0419 E-score
20,ACGGATGA,0.00454 E-score
21,ATCTAGTA,0.31 E-score
22,CAGTTCGG,-0.00109 E-score
23,CCCGTGAA,-0.192 E-score
24,ACTCCACA,-0.00395 E-score
25,AAGGATAA,0.131 E-score

row,Sequence,binding signal
1,AATATGGA,0.0515 E-score
2,AAAACAAC,0.116 E-score
3,AATAGTTA,0.32 E-score
4,ATGTTCAG,0.186 E-score
5,AAGGTTCG,0.028 E-score
6,CTTCCCCA,-0.0482 E-score
7,ACTCTATG,-0.0409 E-score
8,AAGTCCGT,-0.123 E-score
9,AGAGGATC,-0.127 E-score
10,ATGCTACC,0.00967 E-score
11,ACAGAACT,0.286 E-score
12,GCCGAGTA,-0.104 E-score
13,CGTTGCCA,-0.142 E-score
14,GTGCGGTA,-0.0241 E-score
15,AAGTACAT,0.283 E-score
16,CGTATTAC,0.223 E-score
17,TAATCCTA,0.179 E-score
18,GAAACAAA,0.0875 E-score
19,GATGTTAA,0.0172 E-score
20,GGCGGGGA,-0.313 E-score
21,CGAGGCCA,-0.121 E-score
22,CAAAAGAG,-0.195 E-score
23,AGATCATC,-0.157 E-score
24,AACGGCAC,-0.043 E-score
25,CGATCTTA,0.0234 E-score

row,Sequence,binding signal
1,CTGGCAAG,-0.12 E-score
2,ACGTAAAA,0.116 E-score
3,TCAATACA,0.0914 E-score
4,CGCTCGAA,-0.209 E-score
5,GATCCGAA,-0.0447 E-score
6,AGCCGCTC,-0.193 E-score
7,AAGCACCC,-0.18 E-score
8,AACTACCC,0.338 E-score
9,CTAATCGA,0 E-score
10,AGAGTTTA,0.105 E-score
11,AACACCAA,-0.00863 E-score
12,AACACTTC,0.0552 E-score
13,ATTGCTTC,0.103 E-score
14,ACTAAATG,0.226 E-score
15,ATTTACCA,0.308 E-score
16,ACTTAAGT,0.118 E-score
17,AGTCACTA,0.0882 E-score
18,GAATAAGC,0.0331 E-score
19,ACACTTGG,-0.0674 E-score
20,GGCACATA,-0.0823 E-score
21,ACGGCGTC,-0.0966 E-score
22,GGGGCGAC,-0.311 E-score
23,CCGAAAAA,-0.00198 E-score
24,AAATCGAG,0.0279 E-score
25,CGCGAGGC,-0.179 E-score

row,Sequence,binding signal
1,TATCCGCA,0.119 E-score
2,CGGAAATC,0.0274 E-score
3,CAGACTCG,-0.0299 E-score
4,TAAAACGA,0.027 E-score
5,CTCTGCAG,-0.16 E-score
6,GGGGTAAA,0.153 E-score
7,ACTTGTAA,0.168 E-score
8,CACGGTGC,-0.189 E-score
9,ATCAAGGC,-0.0755 E-score
10,GAGCAGTA,0.094 E-score
11,ATAATATA,0.435 E-score
12,CGTCAATA,0.0912 E-score
13,GCAGAGGA,-0.251 E-score
14,ACAAGGGG,-0.0673 E-score
15,GAACGAGA,-0.0271 E-score
16,CGTGCCGA,-0.178 E-score
17,GTAGTAGA,0.368 E-score
18,GCGTTGAA,-0.0546 E-score
19,ACCATCGA,0.139 E-score
20,ATAAAATG,0.246 E-score
21,CCCGGTGA,-0.253 E-score
22,AAGTCCGG,-0.203 E-score
23,GAGACTGA,-0.0258 E-score
24,AGGACCCC,-0.251 E-score
25,TCTGGAAA,0.0146 E-score

row,Sequence,binding signal
1,AATGGCGA,-0.102 E-score
2,AACCATGG,0.0755 E-score
3,CCATAAAC,0.0109 E-score
4,CCAGACGC,-0.208 E-score
5,CGACGCTC,-0.217 E-score
6,GCGCACGC,-0.0982 E-score
7,AATGGGCG,-0.198 E-score
8,AGTCGTCA,-0.113 E-score
9,GCTACGGA,-0.0221 E-score
10,AACTTGCC,-0.00515 E-score
11,GAGATCAA,-0.157 E-score
12,CACGTATC,0.0345 E-score
13,AACTTCTT,-0.0295 E-score
14,ACAAATAG,0.227 E-score
15,ACATCACG,-0.0776 E-score
16,CGGACCCA,-0.267 E-score
17,ATGTCGAA,0.247 E-score
18,CACCTGAG,-0.203 E-score
19,ACATGAAT,0.176 E-score
20,ACGTTAAC,0.124 E-score
21,TCGCCGCA,-0.11 E-score
22,AACCCATC,-0.0678 E-score
